Experimental data published in PubChem BioAssay AID1508624 (National Center for Advancing Translational Sciences (NCATS), 2021).
The campaign covered roughly 48,000 compounds. About 120 (0.25%) were called active. Another 4% or so got no clear call; they are omitted. The call rests on the fitted dose curve; in most records, active means well fitted activation curve with a large enough effect; inconclusive means small, poorly fitted or top-dose-only effect, or another doubt; inactive means no such curve, though single readings can be large or run the other way. The list shows a part of the results.

assay: Primary qHTS for Identification of Small Molecule Activators of Huntingtin-Antisense Promoter Activity; conditions: HEK293 HTT-AS promoter firefly luciferase reporter, 24 h; series mostly up to 57.5 µM; activity change, positive = activation: at the top concentration; further: nearly all actives have a fitted effect of over 55% in size
How it was run: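 Quantitative HTS used concentration series of up to 57.5 uM final on HEK293 luciferase reporter cells, 24 h at 37 degrees C. Readout was Dual-Glo firefly luminescence.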

Activity change, positive = activation, inactive:
Cc1ccc2c(c1)NC(c1cccnc1)=NC(c1ccc(F)cc1)=N2 1.27%
CCOC(=O)c1c(-c2ccc(C)cc2)csc1NC(=O)c1nc(SCC)ncc1Cl 23.5%
Cc1ccc(-n2c(=O)c3ccc(C(=O)NCc4ccccc4Cl)cc3n(Cc3ccccc3F)c2=O)cc1 -13.4%
COc1cccc(NS(=O)(=O)c2ccc3[nH]cc(C(=O)N4CCCCCC4)c(=O)c3c2)c1 -1.07%
CC1CCN(CCCNC(=O)c2cc(Sc3ccc(F)cc3)nc3ccccc23)CC1 -25.1%
CCc1ccc(CN(Cc2cn[nH]c2-c2ccc(OC)cc2)C(=O)Nc2ccc(C)c(F)c2)cc1 -20.6%
O=C(NC1CC(=O)N(c2cccc(F)c2)C1)C1CC1 (centres undefined) -3.9%
Cc1ccc(NC(=O)c2oc3ccccc3c2NC(=O)c2ccccc2C)cc1 -5.25%
COc1ccc(Cn2c(=O)c3cccnc3n(Cc3cccc(OC)c3)c2=O)cc1 -30.4%
O=c1c2cc3c(cc2nc2sc(Nc4ccc(F)c(Cl)c4)nn12)OCO3 -2.37%
COc1cc(OC)c(N(C)C(=O)Cn2ncc3c([nH]c4ccccc43)c2=O)cc1Cl -26.1%
Cc1nc(C)c(-c2ccc(SCC(=O)Nc3ccc(F)c(F)c3)nn2)s1 -32.8%
Cc1ccc(NC(=O)c2cc(S(=O)(=O)N3CCCC(C)C3)cn2C)c(Br)c1 (centres undefined) -37.9%
Cn1c(=O)c2c(-c3cccc(Br)c3)n(CCO)cc2n(C)c1=O -16.8%
CCN1CCN(c2oc(/C=C/c3ccccc3OC)nc2C#N)CC1 -7.15%
CCOC(=O)N1CCC(NC(=O)c2ccc3c(c2)N(Cc2ccc(F)cc2)C(=O)c2ccccc2S3(=O)=O)CC1 -39.5%
Cc1ccc(CNC(=O)c2ccc3c(O)c(S(=O)(=O)c4ccccc4)c(=O)[nH]c3c2)cc1 -5.83%
CCCCC(CC)COC(=O)c1ccccc1C(=O)O (centres undefined) -20.5% [at 116 µM, percent change from vehicle, -100% = no light]
CCOc1ccc(NC(=O)C(NS(=O)(=O)c2ccc3c(c2)CCN3C(C)=O)C(C)C)cc1 (centres undefined) -2.87%
CCOc1ccccc1NC(=O)c1nnn(CC(=O)Nc2ccc(OC)c(OC)c2)c1N -15.4%
O=C(CSc1nc2ccccc2nc1Cc1ccc(Cl)cc1)NCCc1ccccc1 -12.9%
Cn1nc(C(=O)NCc2ccc(Cl)cc2)c2c1-c1ccccc1SC2 -2.43%
Cc1ccc(N(Cc2cccs2)C(=O)c2ccc(Br)o2)cc1 -24.7%
Cc1cc(=O)n2nc(N3CCC(C(=O)Nc4ccc(C)c(Cl)c4)CC3)sc2n1 -6.87%
Cc1c(C)c2c(c(C)c1O)CCC(C)(COc1ccc(CC3SC(=O)NC3=O)cc1)O2 (centres undefined)
COc1ccc(CNC(=O)Cc2c(C)c3c(cc(C)c4c(C)c(C)oc43)oc2=O)cc1 -3.61%
CCSc1ncc(Cl)c(C(=O)Nc2nc3ccc(OC)cc3s2)n1 -0.764%
COc1ccc(CNC(=O)CCS(=O)(=O)c2ccc3c(c2)oc(=O)n3C)cc1 -1.46% [at 11.5 µM, percent change from vehicle, -100% = no light]
CCOc1cc(C2c3c(-c4ccc(Br)cc4)n[nH]c3C(=O)N2c2ccc(Cl)cc2)ccc1O (centres undefined) -55%
CCn1cc(C(=O)OCC(=O)Nc2ccc(F)cc2F)c(=O)c2ccc(C)nc21 -10.2%
Cc1cccc(-c2nc(Cn3c(=O)cc(-c4ccccc4)c4c(C)nn(C)c43)c(C)o2)c1 -8.28%
CCCn1c2ccccc2c2cnn(CC(=O)NCCc3ccccc3)c(=O)c21 -18.2%
COC(=O)c1ccc(Cn2c(=O)cc(C(F)(F)F)c3c(C)nn(C)c32)cc1 -7%
CCOc1ccc(S(=O)(=O)N(CC(=O)NCCSc2ccccc2)c2ccccc2)cc1 -9.01%
CCN(c1ccc(OC)cc1)S(=O)(=O)c1ccc2[nH]c(=O)ccc2c1 -16.3%
O=C(Cn1c2ncccc2c(=O)n1-c1ccccc1)Nc1ccc(F)c(F)c1 -2.51%
O=C(NCc1ccc(Cl)cc1)C1CCCN(c2nc3ccccc3n3cccc23)C1 (centres undefined) -30.9%
Cc1cc(N2CCCCC2)nc2ccc(NC(=O)/C=C/c3ccccc3Cl)cc12 -16%
Cc1ccccc1Cn1c(=O)n(CCc2ccccc2)c(=O)c2ccccc21 -24.7%
CN[C@@H]1CN(c2ccc3c(=O)c(C(=O)O)cn(-c4nccs4)c3n2)C[C@@H]1OC -34.1% [at 25.1 µM, percent change from vehicle, -100% = no light]
COc1ccc(OC)c(C(C)NC(=O)Cn2c(=O)cc(C)c3c(C)nn(-c4ccc(C)cc4)c32)c1 (centres undefined) -12.5%
Cc1ccc(C)c(N2CCN(Cc3csc(C)c3C)CC2)c1 -16.6%
CCCCC(=O)Nc1ccc2nc(SCC(=O)N3CCCC3)sc2c1 7.68%
COc1ccc(CNC(=O)c2nn(-c3ccccc3C)nc2CO)cc1 -16%
COc1cccc(CNC(=O)C(NS(=O)(=O)c2ccc3c(c2)CCN3C(C)=O)C(C)C)c1 (centres undefined) -24.1%
CCOc1ccccc1CC1C(=O)Nc2ccc(Br)cc21 (centres undefined) -61%
CC=C(C(=CC)c1ccc(O)cc1)c1ccc(O)cc1 -35.1%
COc1ccc(-c2cn3nc(N4CCCC(C(=O)NCc5ccccc5Cl)C4)sc3n2)cc1 (centres undefined) 18%
Cc1cccc(CNC(=O)CCn2ccc3cc(S(=O)(=O)N4CCCC4)ccc32)c1 0%
COc1ccc(OC)c(CCNC(=O)c2cnn(-c3ccccc3)c2C2CCN(C(=O)OC(C)(C)C)CC2)c1 -29.9%
O=c1c(N2CCN(c3cccc(C(F)(F)F)c3)CC2)csc2ccc(Cl)cc12 8.23%
COc1cc(OC)cc(N2CCN(S(=O)(=O)c3ccc(-n4cnnn4)cc3)CC2)c1 -13.1%
COC(=O)c1cc2oc3ccccc3c2n1Cc1cc(C)ccc1C 0.129%
COC(c1ccccc1)(c1ccccc1)[C@H](Oc1nc(C)cc(C)n1)C(=O)O
CC(O)C1C(=O)N2C(C(=O)O)=C(SC3CNC(C(=O)N(C)C)C3)C(C)C12 (centres undefined) -14.7%
Cc1nn(C)c2c1c(-c1ccccc1)cc(=O)n2C(C)C(=O)NCc1ccc(F)cc1 (centres undefined) -11.2%
CCN1CCN(C(c2cccc(F)c2)c2c(O)cc(C)n(Cc3ccco3)c2=O)CC1 (centres undefined) 5.04%
O=C1CC(c2ccccc2)Cc2[nH]c(=O)c(-c3nc(-c4ccc(Cl)cc4)cs3)cc21 (centres undefined) -37.6%
CC(=O)c1cccc(NC(c2ccc(F)cc2)c2nnc(-c3ccccc3)o2)c1 (centres undefined) -32.7%
CCSc1nnc2c(n1)OC(CC)N(C(C)=O)c1ccccc1-2 (centres undefined) -15.3%
Cc1ccc(-n2nnnc2CNC(=O)C(C)C)cc1C -0.184%
CCc1ccccc1NC(=O)NCc1ccc2c(c1)CCN2C(=O)c1ccccc1 -14.1%
O=C(Nc1ccccc1C(=O)OCc1cc(=O)n2c3c(sc2n1)CCCC3)c1cccc(Cl)c1 -7.24%
O=C(CSc1nccn1Cc1ccccc1)NCc1ccccc1Cl 2.19%
CCOC(=O)CC(NC(=O)N1CCC(CN2CCC(C)CC2)CC1)c1ccccc1 (centres undefined) -8.18%
CC(C)Cn1cc(NC(=O)N2CCN(c3ccccc3F)CC2)c2ccccc2c1=O -11.9%
CC1(C)[C@@H]2CC[C@@]1(C)C(=O)C2 -5.54%
CC1=C(C(=O)Nc2ccc(C)cc2C)C(c2ccccc2)n2ncc(C(=O)Nc3ccccc3)c2N1 (centres undefined) -20.9%
CCOC(=O)c1c(-c2ccccc2)csc1NC(=O)c1cc(-c2ccc(Cl)cc2)on1 -1.36%
CCOC(=O)c1sc(NC(=O)c2cc(-c3ccc(F)cc3)on2)c(C(=O)OCC)c1C -1.08%
COC(=O)c1ccc2c(=O)n(CCCCCC(=O)N3CCN(c4ccc(OC)cc4)CC3)c(=O)[nH]c2c1 17.5%
Cc1c(CC(=O)NCCc2ccc(Cl)cc2)c(=O)oc2c(C)c3occ(C(C)(C)C)c3cc12 -7.98%
Cc1ccc(NC(=O)C2CCCN(S(=O)(=O)c3cccc4cccnc34)C2)c(C)c1 (centres undefined) -10.5%
CCOC(=O)CSc1nc2ccc(NC(=O)c3ccccc3F)cc2s1 -20.5%
CCOc1ccc(CNC(=O)c2ccc(Sc3ccc(Cl)cc3)c(NC(C)=O)c2)cc1OC -34.5%
CCS(=O)(=O)c1nc(S(=O)(=O)c2ccc(Cl)cc2)c(NCc2ccccc2Cl)s1 -22.7%
COC(=O)C1=C(C)NC(C)=C(C(=O)OCCN2CCN(C(c3ccccc3)c3ccccc3)CC2)C1c1cccc([N+](=O)[O-])c1 (centres undefined) -14.1%
O=C(NCCC1=CCCCC1)c1ccc2c(c1)ncn2-c1ccc(F)c(F)c1 8%
CC(=O)c1ccc(N2CCN(S(=O)(=O)c3ccc4[nH]c5c(c4c3)CCCC5)CC2)cc1 -34.6%
O=c1c2c(-c3ccc(Cl)cc3)ccnc2[nH]n1-c1ccccc1 -4.48%
CCc1ccc(Nc2nc(N)nc(CSc3nc4ccccc4s3)n2)cc1 -14.7%
CCN(Cc1ccccc1)Cc1c(O)ccc2c(=O)c(-c3ccccc3Cl)c(C(F)(F)F)oc12 -4.68%
COc1ccc(OC)c(C2c3c(oc4ccc(C)cc4c3=O)C(=O)N2CCCN(C)C)c1 (centres undefined) -1.79%
C=Cc1c(C)c2cc3[nH]c(cc4nc(cc5nc(cc1[nH]2)C(C)=C5CCC(=O)O)C(CCC(=O)O)=C4C)c(C)c3C=C -7.01%
CC(=O)Nc1cccc(NC(=O)c2c(-c3ccccc3)c(-c3ccccc3)nn(C)c2=O)c1 -15%
CCOCc1cc(CN2CCN(c3cccc(Cl)c3)CC2)c(O)c2ncccc12 -37%
CCc1ccccc1NS(=O)(=O)c1ccc2c(c1)OCC(C(=O)N1CCCC1)O2 (centres undefined) -16.6%
CCCN(CCC)C(=O)CSc1nc2sc3c(c2c(=O)n1-c1ccccc1)CCN(C(C)=O)C3 -1.56%
CCc1ccc(-n2nc3ccc(NC(=O)c4ccc(C#N)cc4F)cc3n2)cc1 -6.88%
COc1cccc(CNC(=O)C2CCN(c3nnc(-n4c(C)ccc4C)s3)CC2)c1 6.65%
CCC(CC)C(=O)Nc1cccc(-c2nc3ccccc3s2)c1 -3.3%
CCOc1ccc(-c2nnc(SCC(=O)NCc3ccc(C)cc3)nc2-c2ccc(OCC)cc2)cc1 -2.3%
CCC(C(=O)Nc1cc(-c2nc3cccnc3s2)ccc1C)c1ccccc1 (centres undefined) 28.1%
Cc1ccc(Cl)cc1NC(=O)Cn1c(=O)c2ccccc2n2nncc12 0.337%
